Measurements published in the RNAGym collection of RNA variant scans (doi:10.1073/pnas.2313332121).
Variants at the background level are over-represented here.

B1: TPR 5TU (parent)
chain: GGAUCUUCUCGAUCUAACAAAAAAGACAAAUCUGCCACAAAGCUUGAGAGCAUCUUCGGAUGCAGAGGCGGCAGCCUUCGGUGGCGCGAUAGCGCCAACGUUCUCAACUAUGACACGCAAAACGCGUGCUCCGUUGAAUGGAGUUUAUCAUG

Variants of: B1
Assay: polymerase ribozyme fitness, log enrichment relative to wild type (log ratio); higher = more active; in vitro selection for triplet polymerase activity
Procedure, shortened: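 Input and output libraries were sequenced on Illumina after a single in vitro selection round, run in triplicate on PCR-built, transcribed mutant libraries of each subunit of a heterodimeric triplet polymerase ribozyme. Selection annealed libraries to a biotinylated primer, the partner subunit and triplets, incubated them frozen at −7 °C, then gel-excised extended constructs for streptavidin-bead capture and RT-PCR. Genotypes with ≥10 input reads and ≥1 read per output were kept. Fitness is the logarithm, taken in base 2, of genotype enrichment divided by wild-type enrichment, using inverse-variance-weighted replicate averages.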
For C72G U82G A89U A113U, the “polymerase ribozyme fitness (log ratio)” value was no more than -4.2. With C72G U90C G92A C105G the “polymerase ribozyme fitness (log ratio)” value was no more than -4.2. With C72G U101G the “polymerase ribozyme fitness (log ratio)” value was no more than -4.2. For C72U, the “polymerase ribozyme fitness (log ratio)” value was -0.00972. For C72U A73U G83A, the “polymerase ribozyme fitness (log ratio)” value was -2.51. In the case of C72U A89C U102G U130G, the “polymerase ribozyme fitness (log ratio)” value is reported as no more than -4.2. With C72U A89U A122U U146A the “polymerase ribozyme fitness (log ratio)” value was -0.532. For C72U A89U G128A, the “polymerase ribozyme fitness (log ratio)” value was no more than -4.2. With C72U A91G A122U C149U the “polymerase ribozyme fitness (log ratio)” value was no more than -4.2. For C72U A91U A106C A115G A119U G143A U145G U151G, the “polymerase ribozyme fitness (log ratio)” value was no more than -4.2. With C72U A147C the “polymerase ribozyme fitness (log ratio)” value was -1.72. In the case of C72U C76A, the “polymerase ribozyme fitness (log ratio)” value is reported as -1.91. In the case of C72U C85G C103A, the “polymerase ribozyme fitness (log ratio)” value is reported as no more than -4.2. For C72U C85U C95U, the “polymerase ribozyme fitness (log ratio)” value was -0.261. For C72U C87A A98U A138C, the “polymerase ribozyme fitness (log ratio)” value was no more than -4.2. In the case of C72U C87A C93U G112C G126U C149A, the “polymerase ribozyme fitness (log ratio)” value is reported as no more than -4.2. In the case of C72U C87G, the “polymerase ribozyme fitness (log ratio)” value is reported as no more than -4.2. With C72U C93G A106G A121U the “polymerase ribozyme fitness (log ratio)” value was -2.98. In the case of C72U C95U G133A, the “polymerase ribozyme fitness (log ratio)” value is reported as no more than -4.2. In the case of C72U C99G U109C, the “polymerase ribozyme fitness (log ratio)” value is reported as no more than -4.2. In the case of C72U G80A C93U C96G, the “polymerase ribozyme fitness (log ratio)” value is reported as no more than -4.2. With C72U G81A C95U the “polymerase ribozyme fitness (log ratio)” value was no more than -4.2. With C72U G84U A98C G140U the “polymerase ribozyme fitness (log ratio)” value was no more than -4.2. For C72U G88C, the “polymerase ribozyme fitness (log ratio)” value was no more than -4.2. With C72U G88U C132G U135G U148G the “polymerase ribozyme fitness (log ratio)” value was no more than -4.2. For C72U G92A C103G, the “polymerase ribozyme fitness (log ratio)” value was no more than -4.2. With C72U G124A U146G the “polymerase ribozyme fitness (log ratio)” value was -1.3. In the case of C72U G126U, the “polymerase ribozyme fitness (log ratio)” value is reported as -0.101. For C72U G126U C132A, the “polymerase ribozyme fitness (log ratio)” value was -4.12. In the case of C72U G140A, the “polymerase ribozyme fitness (log ratio)” value is reported as no more than -4.2. With C72U G143C the “polymerase ribozyme fitness (log ratio)” value was -3.23. For C72U G152A, the “polymerase ribozyme fitness (log ratio)” value was -2.42. In the case of C72U U77C C96A A110G, the “polymerase ribozyme fitness (log ratio)” value is reported as no more than -4.2. With C72U U82A C85A A107C C123U A147C U148C the “polymerase ribozyme fitness (log ratio)” value was no more than -4.2. For C72U U90G U109A A122G, the “polymerase ribozyme fitness (log ratio)” value was no more than -4.2. In the case of C72U U145A, the “polymerase ribozyme fitness (log ratio)” value is reported as 0.261. In the case of A73C A89U G94U A98G, the “polymerase ribozyme fitness (log ratio)” value is reported as no more than -4.2. For A73C A107G, the “polymerase ribozyme fitness (log ratio)” value was no more than -4.2. For A73C A113C, the “polymerase ribozyme fitness (log ratio)” value was no more than -4.2. In the case of A73C A115C, the “polymerase ribozyme fitness (log ratio)” value is reported as no more than -4.2. With A73C A142C the “polymerase ribozyme fitness (log ratio)” value was no more than -4.2. With A73C A142U the “polymerase ribozyme fitness (log ratio)” value was no more than -4.2. For A73C C85G U146A, the “polymerase ribozyme fitness (log ratio)” value was no more than -4.2. In the case of A73C C95U, the “polymerase ribozyme fitness (log ratio)” value is reported as -2.49. For A73C C96A C105G C125U G136C, the “polymerase ribozyme fitness (log ratio)” value was no more than -4.2. In the case of A73C G81C A110G A121G, the “polymerase ribozyme fitness (log ratio)” value is reported as no more than -4.2. For A73C G83C, the “polymerase ribozyme fitness (log ratio)” value was no more than -4.2. For A73C G84A U104A A107G U134G, the “polymerase ribozyme fitness (log ratio)” value was no more than -4.2. For A73C G86C U104C, the “polymerase ribozyme fitness (log ratio)” value was no more than -4.2. In the case of A73C G88U C95G U104A C125G U145G, the “polymerase ribozyme fitness (log ratio)” value is reported as no more than -4.2. In the case of A73C G92C C108U, the “polymerase ribozyme fitness (log ratio)” value is reported as no more than -4.2. For A73C G94U A107U A119G A121U A122U, the “polymerase ribozyme fitness (log ratio)” value was no more than -4.2. In the case of A73G A91U, the “polymerase ribozyme fitness (log ratio)” value is reported as no more than -4.2. In the case of A73G C75U C87G C125U G141A, the “polymerase ribozyme fitness (log ratio)” value is reported as no more than -4.2. With A73G C76U C87A A91U C93A G117C A120U G140A the “polymerase ribozyme fitness (log ratio)” value was no more than -4.2. In the case of A73G C79U C96U A142U, the “polymerase ribozyme fitness (log ratio)” value is reported as no more than -4.2. For A73G C85A G124A, the “polymerase ribozyme fitness (log ratio)” value was -1.16. With A73G C85U A98G C108U U139G the “polymerase ribozyme fitness (log ratio)” value was no more than -4.2. For A73G C85U G133U, the “polymerase ribozyme fitness (log ratio)” value was no more than -4.2. With A73G C85U U102G G124A the “polymerase ribozyme fitness (log ratio)” value was no more than -4.2. For A73G C87G C96A C118U, the “polymerase ribozyme fitness (log ratio)” value was no more than -4.2. With A73G C87U the “polymerase ribozyme fitness (log ratio)” value was -1.55. With A73G C87U C125G G140U the “polymerase ribozyme fitness (log ratio)” value was no more than -4.2. With A73G C87U C129A U134C A142U the “polymerase ribozyme fitness (log ratio)” value was no more than -4.2. For A73G C93U A122U G140A G143A U145G G152U, the “polymerase ribozyme fitness (log ratio)” value was no more than -4.2. In the case of A73G C93U A138G G141U, the “polymerase ribozyme fitness (log ratio)” value is reported as no more than -4.2. In the case of A73G C93U C123G U151G, the “polymerase ribozyme fitness (log ratio)” value is reported as no more than -4.2. For A73G C93U G152A, the “polymerase ribozyme fitness (log ratio)” value was -2.84. For A73G C95G C96U G124U C149U G152A, the “polymerase ribozyme fitness (log ratio)” value was no more than -4.2. In the case of A73G C96G A110U, the “polymerase ribozyme fitness (log ratio)” value is reported as no more than -4.2. In the case of A73G C96U C114G, the “polymerase ribozyme fitness (log ratio)” value is reported as no more than -4.2. In the case of A73G C125G, the “polymerase ribozyme fitness (log ratio)” value is reported as -0.161. In the case of A73G G80C, the “polymerase ribozyme fitness (log ratio)” value is reported as no more than -4.2. In the case of A73G G83C, the “polymerase ribozyme fitness (log ratio)” value is reported as -2.56. In the case of A73G G86A A98U G117U C149U, the “polymerase ribozyme fitness (log ratio)” value is reported as -4.18. For A73G G86U A91C, the “polymerase ribozyme fitness (log ratio)” value was no more than -4.2. For A73G G92C G136C U145G, the “polymerase ribozyme fitness (log ratio)” value was no more than -4.2. For A73G G94A U148C, the “polymerase ribozyme fitness (log ratio)” value was -3.66. In the case of A73G G94C A106U C108U G143U, the “polymerase ribozyme fitness (log ratio)” value is reported as no more than -4.2. In the case of A73G G94U G117U G141C A142C U146C, the “polymerase ribozyme fitness (log ratio)” value is reported as no more than -4.2. With A73G G126U the “polymerase ribozyme fitness (log ratio)” value was -0.214. In the case of A73G G141A, the “polymerase ribozyme fitness (log ratio)” value is reported as -0.252. In the case of A73G U77A, the “polymerase ribozyme fitness (log ratio)” value is reported as no more than -4.2.
